# According to US8071103B2, “Pharmaceutical composition comprising a human GLP-1 mimetibody” (Centocor, Inc., priority 2006, dated 2011):
# B1: GLP-1 MMB of SEQ ID NO 4: GLP-1 mimetibody having the sequence of SEQ ID NO 4 (protein)
# chain: HSEGTFTSDVSSYLEGQAAKEFIEWLVKGRGGGSGGGSGTLVTNSS[human IgG4 Fc with S228P F234A L235A (EU numbers) omitted]
# modifications: fusion protein of GLP-1 variant-linker 3-J region-Hinge H3-Fc
# How the values were obtained:
# [1] = system: diet-induced obese (DIO) mice; assay: Correlation of ipGTT activity with plasma levels in DIO mice; format: in vivo; settings: single 1 mg/kg iv, up to 6 days post injection
# Protocol: Correlation of the Pharmacodynamic Activity of a GLP-1 MMB with its Pharmacokinetic Profile in DIO Mice. The purpose of this study was to correlate the effect of a GLP-1 MMB in regulating glucose tolerance with its pharmacokinetic profile in diet-induced obese (DIO) mice. Animals were dosed (iv) with a GLP-1 MMB of SEQ ID NO 4 (1 mg/kg) and glucose tolerance tests were performed at various time post dosing. Simultaneously, blood samples were collected to assess GLP-1 MMB of SEQ ID NO 4 levels.
# Materials/Methods. Animals/Treatments: C57B1/6J mice were started at 4 weeks of age on a diet containing 60.9% fat (Purina TestDiets 58126). […]
# Glucose tolerance test (ipGTT): Mice were fasted overnight (16 hr) before the test. In the morning a fasting glucose was measured via tail snips using a hand-held glucometer (LifeScan). […] Blood glucose was measured after 15, 30, 60, 90 and 120 min using tail vein blood.
# GLP-1 MMB plasma levels: Blood samples were collected after the ipGTT via cardiac puncture. […] The concentration of intact GLP-1 MMB of SEQ ID NO 4 was measured using a mesoscale discovery (MSD) technology. […] A ruthenium labeled monoclonal antibody recognizing the linker region of the mimetibody (CNTO712) was added for detection, and the luminescence responses were determined using the MSD sector imager 6000 reader. […]
# Pharmacokinetics in rats = format: in vivo
# Protocol: Pharmacokinetics in rats: Sprague-Dawley-derived rats were treated with a single subcutaneous or intravenous dose of GLP-1 MMB of SEQ ID NO 4 (3.0 mg/kg, lot #8833173) (1). Approximately 300 μl of blood were collected at various times following dosing in sodium citrate (3.8%) containing protease inhibitors (Roche Complete EDTA free, Roche Applied Science, Indianapolis, Ind.) and DPP4 inhibitors (Linco, St. Charles, Mo.). Plasma was isolated and stored at −80° until samples could be analyzed. The concentration of intact GLP-1 MMB of SEQ ID NO 4 was measured using a mesoscale discovery (MSD) technology. Briefly, plasma samples were serially diluted by BioMek Fx for a total of 4 dilutions, neat, 1:8, 1:64 and 1:512. Identical standard curves in neat plasma were included on each plate. GLP-1 MMB of SEQ ID NO 4 was captured on MSD plates by biotinylated monoclonal antibody (CNTO1626) designed to detect intact N-terminus of GLP-1 MMB of SEQ ID NO 4. Ruthenium labeled monoclonal antibody recognizing linker region on GLP-1 MMB of SEQ ID NO 4 (CNTO712) were added for detection and the luminescence responses were determined using the MSD sector imager 6000 reader. GLP-1 MMB of SEQ ID NO 4 level was calculated using sigmoidal dose-response curve (GraphPad PRISM).
# Data analysis: Non-compartmental analysis (NCA) was employed to calculate the pharmacokinetic parameters of GLP-1 MMB of SEQ ID NO 4 (WinNonlin, Version 5.1, Pharsight Corporation, Mountain View, Calif.). The maximum serum concentration, Cmax and the time to reach Cmax (Tmax), were obtained from inspection of the serum concentration vs. time profiles. The area under the concentration curve (AUC) from time 0 to the last time point with quantifiable levels of GLP-1 MMB of SEQ ID NO 4 was calculated (AUC (0-7d) for rat, AUC (0-21d) for monkey), as well as the AUC from time 0 to infinity. The AUC values were obtained by linear trapezoidal integration. The terminal rate constant (λz) was determined by least-squares regression analysis of the log-linear portion of the terminal phase. The terminal half-life, t½, was calculated from the ratio of 0.693 and λz.
# INS-1E cells = assay: Insulin secretion assay in INS-1E cells; format: cell-based, rat; settings: 25 nM, 6.5 mM glucose, two hours
# Protocol: In vitro Activity of GLP-1 MMB as Measured by Insulin Secretion. A further insulin secretion assay was developed to measure functional in vitro activity of the GLP-1 MMB of SEQ ID NO 4.,
# Cell culture: INS-1E cells were cultured in RPMI 1640/10% FBS/1% L-glutamine/1% Sodium Pyruvate/1% Non-essential Amino Acids/50 μM β-Mercaptoethanol and maintained at 37° C. in a humidified incubator with 5% CO2. Data was analyzed in GraphPad PRISM, version 4.03.
# Insulin Secretion Assay: INS-1E cells were plated at 100,000 cells/well in 96-well plates (Costar 3610) and allowed to recover 4 days in normal growth media. The cells were washed twice and 0.1 ml of KRBH buffer/3 mM glucose was added. The cells were allowed to equilibrate in this buffer for 2 hours. The media was removed and 0.12 ml of GLP-1 MMB of SEQ ID NO 4 in KRBH with 6.5 mM glucose was added per well. Twenty microliters of supernatant was removed per well for the T=0 time point. The cells were incubated for two hours at 37° C. at 5% CO2 and twenty microliters of supernatant were removed per well. Supernatants were frozen at −20° C. until the insulin ELISA was performed. Insulin concentrations were determined using a the Ultra Sensitive Rat Insulin ELISA kit (Crystal Chem).
# [2] = SD rats, single iv, 3 mg/kg, mean
# [3] = SD rats, single sc, 3 mg/kg, mean
molecule,measurement,setting,value
B1,AUC of ipGTT relative to the negative control,[1],statistically significant reduction
same,AUC(0-7 d),Pharmacokinetics in rats; [2],23.61 µg·days/mL
same,AUCinf,Pharmacokinetics in rats; [2],23.86 µg·days/mL
same,Cl,Pharmacokinetics in rats; [2],5.2458 mL/h/kg
same,Cmax,Pharmacokinetics in rats; [2],53910 ng/mL
same,Vss,Pharmacokinetics in rats; [2],0.11007 L/kg
same,t½,Pharmacokinetics in rats; [2],35.5 h
same,AUC(0-7 d),Pharmacokinetics in rats; [3],5.04 µg·days/mL
same,AUCinf,Pharmacokinetics in rats; [3],5.20 µg·days/mL
same,Cmax,Pharmacokinetics in rats; [3],2290 ng/mL
same,F %,Pharmacokinetics in rats; [3],21.85%
same,Tmax,Pharmacokinetics in rats; [3],19.9 h
same,t½,Pharmacokinetics in rats; [3],41.5 h
same,terminal half-life,"Pharmacokinetics in rats; rats, iv dosing, 3.0 mg/kg",36 h
same,bioavalibility,"Pharmacokinetics in rats; rats, sc administration, 3.0 mg/kg",approximately 22%
same,terminal half-life,"Pharmacokinetics in rats; rats, sc dosing, 3.0 mg/kg",40.8 h
same,amount of insulin secreted into the supernatant,INS-1E cells,significantly increased
